Laboratory results reported in PubChem BioAssay AID588855 (National Center for Advancing Translational Sciences (NCATS), 2011).
Out of some 410,000 compounds screened, about 5,000 (1.2%) were called active. The shares of active, inactive and inconclusive entries below differ from those in the screen. Calls come from the whole dose curve; as a rule, active = well fitted inhibition curve with a large enough effect; inconclusive = small, poorly fitted or top-dose-only effect; inactive = no such curve, though single readings can be large or run the other way. Potencies of inconclusive entries are doubtful fits and often do not repeat.

Test: qHTS for Inhibitors of TGF-b; note: nearly all actives have a fitted effect of over 65% in size
Conditions: HepG2 CAGA-GFP TGF-b/SMAD3 reporter, GFP fluorescence, 18 h, TGF-beta stimulated, 500 pg/mL final; series mostly up to 46.1 µM; activity, negative = inhibition: at the top concentration
Outline: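 Read-out: total well GFP (ex488/em500-530) summed from mean per-cell fluorescence. Cells: HEPG2 CAGA-GFP, 1% FBS DMEM, 18 h at 37 degrees C with 500 pg/mL final TGF-beta. Unstimulated wells served as the full-inhibition control; stimulated DMSO wells = 0%.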
% is set by controls: 0 for no effect and ±100 for the full control effect; potency is the fitted concentration of half-maximal effect; tags give direction and shape of the fitted curve.

SMILES | Potency | activity, negative = inhibition
CCc1ccc(S(=O)(=O)Nc2cc(SCC(=O)O)c(O)c3ccccc23)cc1 | inconclusive: 35.5 µM [inhibitor, single point] | 
CCOc1ccc(C2C(C(=O)Nc3ccccc3C)=C(C)Nc3nnnn32)cc1 (centres undefined) |  | inactive: -19.5%
CCN(C(=O)COC(=O)c1c2c(nc3ccccc13)/C(=C/c1ccccc1)CC(C)C2)C1CCS(=O)(=O)C1 (centres undefined) | inconclusive: 35.5 µM [inhibitor, single point] | 
CCC[n+]1c2ccccc2cc2ccccc21 | inconclusive: 10 µM [inhibitor, single point] | 
Cc1ccc(C)c(NC(=O)/C(C#N)=C/c2ccc(C(C)C)cc2)c1 | inconclusive: 35.5 µM [inhibitor, single point] | 
Cc1cccc(NC(=O)c2cc3cc([N+](=O)[O-])ccc3s2)n1 |  | inactive: -26.9%
CCOC(=O)C1(Cc2cccc(OC)c2)CCCN(C(=O)c2ccc(OC)o2)C1 (centres undefined) | inconclusive: 12.6 µM [inhibitor, partial curve, poor fit] | 
CCOC(=O)N1CCN(CC(=O)Nc2c(C(=O)OC)[nH]c3ccc(Cl)cc23)CC1 | inconclusive: 31.6 µM [inhibitor, single point] | 
CCN(CC(=O)Nc1ccc(S(=O)(=O)N2CCCC2)cc1)Cc1ccccc1 |  | inactive: -8.93%
O=C(NCc1ccco1)c1sc2cc(Cl)ccc2c1Cl | inconclusive: 5.62 µM [inhibitor, single point] | 
Cc1ccc(CN2CCC(CNC(=O)Nc3ccc(C)c(C)c3)C2)cc1 (centres undefined) | inconclusive: 35.5 µM [inhibitor, partial curve, poor fit] | 
COc1ccc(C(Sc2ccccc2)c2ccccc2)cc1OC (centres undefined) | inconclusive: 22.4 µM [inhibitor, single point] | 
Nc1ccccc1N=Cc1ccc(-c2cccc(Cl)c2)o1 | inconclusive: 31.6 µM [inhibitor, single point] | 
O=C1COc2ccc(C(=O)COC(=O)c3cc(S(=O)(=O)NCc4ccccc4)ccc3O)cc2N1 | inconclusive: 20 µM [inhibitor, single point] | 
COc1ccc(OCC(=O)OCC(=O)NC2CC2)cc1 |  | inactive: 0.137%
Cc1sc2c(c1C)CN(C(C)(C)C)CN2C(=O)c1ccccc1 |  | inactive: -5.88%
CC1(Cc2ccc(Cl)cc2)C(=O)Nc2c(Cl)ccc(Cl)c21 (centres undefined) |  | inactive: -18.2%
Cc1cc(NC(=O)CCCS(=O)(=O)c2nc(-c3cccs3)cc(C(F)(F)F)n2)no1 | active: 14.1 µM | 
CCOC(=O)C1=CCN(S(=O)(=O)c2ccc(C)cc2)C1c1cccs1 (centres undefined) | inconclusive: 14.1 µM [inhibitor, single point] | 
Cn1cccc1/C=C(/C#N)c1ccc(F)cc1 | inconclusive: 1.58 µM [inhibitor, partial curve, poor fit] | 
COC(=O)c1nn(-c2ccccc2)c(=O)cc1Oc1ccccc1 | inconclusive: 6.31 µM [inhibitor, single point] | 
O=C(CN(c1ccccc1)S(=O)(=O)c1ccc(F)cc1)NC1CCCCCC1 | inconclusive: 6.31 µM [inhibitor, single point] | 

SMILES | Potency | activity, negative = inhibition
O=C(/C=C/NNC(=O)c1cccc(Br)c1)c1cccc(Br)c1 | inconclusive: 35.5 µM [inhibitor, single point] | 
Cc1nn(C(=O)c2c(F)cccc2F)c(C)c1S(=O)(=O)N1CCCCCC1 |  | inactive: -15.1%
COc1ccc(/C=C/C(=O)NC(=S)NNC(=O)Cc2cccs2)cc1 | inconclusive: 35.5 µM [inhibitor, single point] | 
CCCC1(c2ccccc2)NC(=O)N(CC(=O)Nc2cc(OC)cc(OC)c2)C1=O (centres undefined) |  | inactive: -10.3%
Cc1cc(NC(c2cccnc2)c2c(C)[nH]c3ccccc23)no1 (centres undefined) | inconclusive: 28.2 µM [inhibitor, single point] | 
COc1ccc2sc(N(CCCN(C)C)C(=O)c3ccc(S(=O)(=O)N(C)Cc4ccccc4)cc3)nc2c1 |  | inactive: -21.3%
COc1ccccc1Nc1nc(Cl)nc(Nc2ccccc2OC)n1 | inconclusive: 35.5 µM [inhibitor, single point] | 
CCOc1ccc(OCC)c(NC(=O)C2CCCN(S(=O)(=O)c3cc(Br)cc4c3N(C(=O)CC)CC4)C2)c1 (centres undefined) | inconclusive: 22.4 µM [inhibitor, single point] | 
CCC(=O)Nc1ccc(-c2cc(-c3ccccc3)nc(-c3ccc(NC(=O)CC)cc3)n2)cc1 | inconclusive: 10 µM [inhibitor, partial curve, poor fit] | 
O=C(NCCO)c1cccc(-c2cnc3c(Nc4cccc(OC(F)(F)C(F)F)c4)nccn23)c1 | inconclusive: 35.5 µM [inhibitor, single point] | 
COc1ccc(C2=NO[C@@H]3C(=O)N(c4cccc(C)c4C)C(=O)[C@H]23)cc1OC |  | inactive: -6.93%
CCN(CC)CCOC(=O)c1ccc(Nc2c3c(nc4ccccc24)CCC3)cc1 | inconclusive: 20 µM [inhibitor, single point] | 
COc1ccc(CNC(=O)C(CC(C)C)N2Cc3ccccc3C2=O)cc1 (centres undefined) | inconclusive: 0.316 µM [inhibitor, full curve] | 
C/C(=N\NC(=O)c1nc2ccccn2c1C)c1ccco1 | inconclusive: 3.98 µM [inhibitor, single point] | 
CN1CCN(C(=O)c2cc3sccc3n2CC(=O)c2ccccc2)CC1 |  | inactive: 29.8%
CC(C)CN(CCNC(=O)c1cc(-c2cccs2)nc2ccccc12)CC(C)C |  | inactive: 2.38%
CCOc1ccccc1CNC(=O)c1cnc2sc(N(CC)CC)nn2c1=O |  | inactive: 0%
COc1ccc(C(CNC(=O)C(C)(C)Oc2ccc(Cl)cc2)N2CCCC2)cc1 (centres undefined) |  | inactive: -29.9%
COc1ccc(Nc2ccc(OC)cc2)cc1 | inconclusive: 11.2 µM [inhibitor, partial curve, poor fit] | 
COc1ccccc1CN1CN(S(=O)(=O)c2ccccc2)c2nc3ccccc3nc21 |  | inactive: -3.4%
CCN(Cc1ccccc1)S(=O)(=O)c1ccc2c(c1)NC(=O)CS2 | inconclusive: 35.5 µM [inhibitor, single point] | 
COc1ccc(C(C)(C)C)cc1NC(=O)c1ccccc1-n1cnnn1 | inconclusive: 3.55 µM [inhibitor, partial curve, poor fit] | 
